Some test systems named below: A101D; A2058; A375.
Holding throughout (assay): cell count relative to DMSO control; melanoma cells; higher = more viable cells
Holding throughout (conditions): library dose: standard library concentration; 72 h

These results are taken from the supplement of paper PMC4604168 (melanoma cell lines).

The other results are listed elsewhere or left out. Single values are uncertain, as repeats are few or missing.
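Also: cells treated in 1,536-well plates, then fixed and DAPI-stained, with nuclei counted from automated high-throughput microscope images.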

For `CC(C)C[C@H](NC(=O)[C@H](Cc1ccccc1)NC(=O)c1cnccn1)B(O)O` [Bortezomib] + COCC[n+]1c2c(n(Cc3cnccn3)c1C)C(=O)c1ccccc1C2=O [YM155] (first compound 0.005 µM, partner dose 0.002 µM), the cell count in the test with A101D came out at 27.4%; in the test on A2058 it was 11.9%; in the test with A375, 84.4%.

Regarding `Cn1c(=O)n(-c2ccc(C(C)(C)C#N)cc2)c2c3cc(-c4cnc5ccccc5c4)ccc3ncc21` + Cc1nc(Nc2ncc(C(=O)Nc3c(C)cccc3Cl)s2)cc(N2CCN(CCO)CC2)n1 [dasatanib] (first compound 0.02 µM, partner dose 0.02 µM), the cell count in the test with A101D came out at 69.9%; with A2058, 48.2%; in the test with A375 it was 71.4%.

As for `Cn1c(=O)n(-c2ccc(C(C)(C)C#N)cc2)c2c3cc(-c4cnc5ccccc5c4)ccc3ncc21` + Cc1ccc(NC(=O)c2cccc(N(C)C)c2)cc1NC(=O)c1ccc(O)cc1 [ZM336372] (first compound 0.02 µM, partner dose 10 µM), the cell count came to 84.5% with A101D, 66.3% with A2058 and 95.2% in the test with A375.

Regarding `Cn1c(=O)n(-c2ccc(C(C)(C)C#N)cc2)c2c3cc(-c4cnc5ccccc5c4)ccc3ncc21` + Cn1c(Nc2ccc(C(F)(F)F)cc2)nc2cc(Oc3ccnc(-c4ncc(C(F)(F)F)[nH]4)c3)ccc21 [CHIR265] (first compound 0.02 µM, partner dose 0.4 µM), the cell count in the test on A101D turned out to be 46.4%; in the test with A2058, 33.3%; in the test on A375, 81.5%.

As for `Cn1c(=O)n(-c2ccc(C(C)(C)C#N)cc2)c2c3cc(-c4cnc5ccccc5c4)ccc3ncc21` + C=CCNC1=C2C[C@@H](C)C[C@H](OC)[C@H](O)[C@@H](C)/C=C(\C)[C@H](OC(N)=O)[C@@H](OC)/C=C\C=C(/C)C(=O)NC(=CC1=O)C2=O [Tanespimycin] (first compound 0.02 µM, partner dose 0.01 µM), the cell count in the test on A101D was 66.7%; in the test with A2058, 50.4%; with A375 it was 91.4%.

Regarding `CC(C)C[C@H](NC(=O)[C@H](Cc1ccccc1)NC(=O)c1cnccn1)B(O)O` [Bortezomib] + Cc1cc(N2CCOCC2)cc2[nH]c(-c3c(NC[C@@H](O)c4cccc(Cl)c4)cc[nH]c3=O)nc12 [BMS536924] (first compound 0.005 µM, partner dose 1 µM), the cell count in the test with A101D was 5.28%; in the test with A2058, 15%; with A375 it was 95.3%.

Consider `CC(C)C[C@H](NC(=O)[C@H](Cc1ccccc1)NC(=O)c1cnccn1)B(O)O` [Bortezomib] + COc1cc(Nc2ncc(F)c(Nc3ccc4c(n3)NC(=O)C(C)(C)O4)n2)cc(OC)c1OC [Tamatinib] (first compound 0.005 µM, partner dose 2 µM), for which the cell count in the test with A101D was found to be 6.33%; in the test on A2058, 7.69%; in the test with A375, 83.4%.

Regarding `Cn1c(=O)n(-c2ccc(C(C)(C)C#N)cc2)c2c3cc(-c4cnc5ccccc5c4)ccc3ncc21` + COCC[n+]1c2c(n(Cc3cnccn3)c1C)C(=O)c1ccccc1C2=O [YM155] (first compound 0.02 µM, partner dose 0.002 µM), the values for the cell count in the test with A101D, in the test on A2058 and with A375 were 64.5%, 25.7% and 57.4%, respectively.
